Measurements: PubChem BioAssay (NCATS)
Inconclusive results, whose numbers are uncertain, are shown with a selection of clear calls. Potencies of inconclusive entries are doubtful fits and often do not repeat. Activity calls are given as the source filed them. The call rests on the fitted dose curve; in most records, active means well fitted curve in the direction sought with a large enough effect; inconclusive means small, poorly fitted or top-dose-only effect, or another doubt; inactive means no such curve, though single readings can be large; an effect the other way counts as inactive or inconclusive.

How the values were obtained:
[1] = qHTS Assay for Identifying Gametocytocidal Compounds (AID 743244); settings: P. falciparum 3D7 stage III-V gametocytes, alamarBlue, 72 h; max response: hits give low values
Outline: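 Fluorescence at Ex 525/Em 598 nm, recorded 24 h after alamarBlue addition, reports residual metabolic activity of 3D7 gametocytes (stages III–V) following 72 h compound exposure at 37 °C, 5% CO2.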

[2] = qHTS Screen of the MIPE 4.0 Collection Against Ewings Sarcoma (RDES) (AID 1259252); further: nearly all actives have a fitted effect of over 35% in size
Outline: (§1)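 CellTiter-Glo luminescence after 48 h compound exposure (titration) gave viability; percent activity used DMSO-treated cells as no inhibition and medium-only wells as full inhibition. Cells grown in RPMI/5% FBS, dosed 4 h post-seeding.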

[3] = qHTS Screen of the MIPE 4.0 Collection Against Ewings Sarcoma (TC71) (AID 1259253); further: nearly all actives have a fitted effect of over 40% in size
Outline: as §1

[4] = qHTS Screen of the MIPE 4.0 Collection Against Ewings Sarcoma (EW8) (AID 1259255); further: nearly all actives have a fitted effect of over 35% in size
Outline: as §1

[5] = qHTS for Activators of Parkin Expression: LOPAC Validation Assay (FLuc Reporter) (AID 720573)
Outline: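 Cells seeded, 24 h; compounds pinned, 7-pt dose response; 24 h at 37 C/5% CO2; volume reduced; FLuc reagent 10 min RT; luminescence read. Normalization: DMSO = 0, positive control = 100%.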
Potency means the concentration at half of the fitted maximal effect; tags describe the fitted curve by direction and shape.

| Compound | Potency [1] | Potency [2] | Potency [3] | Potency [4] | Potency [5] |
| --- | --- | --- | --- | --- | --- |
| COc1cccc2c1CCCC2CCCN1CCN(C2CCCCC2)CC1 (configuration not stated) | inconclusive: 23.5 µM [inhibitor, single point] | inconclusive: 20.9 µM [inhibitor, partial curve] | inconclusive: 16.6 µM [inhibitor, partial curve] | inconclusive: 20.9 µM [inhibitor, partial curve] |  |
| Cc1cc2cc3c(C)cc(=O)oc3c(C)c2o1 |  |  |  | inconclusive: 33.2 µM [inhibitor, single point] |  |
| Cc1cnc(Nc2ccc(OCCN3CCCC3)cc2)nc1Nc1cccc(S(=O)(=O)NC(C)(C)C)c1 | inconclusive: 37.2 µM [inhibitor, single point] | inactive | inactive | inactive |  |
| Cc1[nH]c(C=C2C(=O)Nc3ccc(S(=O)(=O)Cc4c(Cl)cccc4Cl)cc32)c(C)c1C(=O)N1CCC[C@H]1CN1CCCC1 |  | inconclusive: 37.2 µM [inhibitor, single point] | inconclusive: 33.2 µM [inhibitor, single point] | inconclusive: 33.2 µM [inhibitor, single point] |  |
| O=C1NC(=O)/C(=C/c2ccc(-c3ccc(F)cc3O)o2)S1 |  |  |  |  | inconclusive: 2.59 µM [activator, full curve] |
| CN1CCC(=C2c3ccccc3CCc3sccc32)CC1 | inconclusive: 28.2 µM [inhibitor, single point] | inconclusive: 26.4 µM [inhibitor, partial curve, poor fit] | inconclusive: 29.6 µM [inhibitor, single point] | inconclusive: 37.2 µM [inhibitor, single point] |  |
